Measured values taken from the supplement of paper PMC4466236.
Whole data set: some 33,000 sequences, median “E-score (dimensionless, -0.5 to 0.5)” near -0.058, cut for the highest 2% near 0.35. This is one part of the list.

The sequences below were run on MvaT (assay: PBM 8-mer E-score (mean of HK and ME arrays) (E-score (dimensionless, -0.5 to 0.5)); higher = stronger relative binding preference; most listed sequences are background and not binding sites).
How it was run: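 Full-length P. aeruginosa MvaT, with glutathione S-transferase fused to its N-terminus (cloned into pTH6838 by isothermal assembly), was tested by protein binding microarray using a previously described protocol. Two universal double-stranded 60-mer arrays (ME and HK) were used, each with a constant 25-mer primer region and a variable 35-mer region covering all 8-mers. The rank-based 8-mer E-score (-0.5 to 0.5) is the mean of the two arrays, parsed with a custom Python script.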

Row | Sequence | PBM 8-mer E-score
1 | AATCCCAT | -0.0767
2 | CGAGATCG | -0.213
3 | GATCCCGC | -0.191
4 | TAATTGAA | 0.252
5 | CCGAGTCC | -0.234
6 | AAGATGCA | -0.0197
7 | CGGGCAAC | -0.166
8 | GTACCACA | -0.151
9 | CATAATAG | 0.318
10 | ACGCCTGG | -0.174
11 | GTTTTTTA | 0.248
12 | AGCTTCAT | -0.108
13 | CGACCCGC | -0.11
14 | CCATATCA | 0.122
15 | CACTCGGC | -0.142
16 | AGTCTTTC | 0.0268
17 | CCTCGGGA | -0.325
18 | AACTACTC | 0.131
19 | CCGGTAGG | -0.273
20 | GCTTCTCA | -0.254
21 | AAGCGAAT | 0.024
22 | AACTTTAC | 0.275
23 | ATGCACCA | -0.0306
24 | GTCTAGTA | -0.038
25 | ATGGCTGC | -0.133

Row | Sequence | PBM 8-mer E-score
26 | ACGGAACG | -0.144
27 | ACTAGTTA | 0.345
28 | CCTAATAC | 0.104
29 | TCAGAAGA | -0.0321
30 | CGCAAACA | 0.0458
31 | CTTATAAA | 0.377
32 | ACGACCGC | -0.178
33 | CAGTGGCC | -0.178
34 | CCCCTTGC | -0.316
35 | CAAATAGC | 0.0989
36 | CTCCTGTA | -0.0796
37 | GGTCGAAC | -0.0987
38 | AAGGTCGA | 0.00108
39 | GGTAGTAA | 0.159
40 | CACCGTCA | -0.178
41 | AGATTGCG | 0.0138
42 | GCGCGCTA | -0.0482
43 | GTATCTCA | 0.0502
44 | GGAGAAAA | -0.143
45 | AGATGACA | -0.0249
46 | TCATCTAA | 0.14
47 | CAGAGCTG | -0.159
48 | AATCAGAC | -0.0697
49 | CTGGGAAA | 0.00808
50 | AGTCATAA | 0.163

Row | Sequence | PBM 8-mer E-score
51 | GCCGTAAA | -0.0198
52 | CAATCGTG | -0.0354
53 | CCGGGGCG | -0.253
54 | CATCCACG | -0.19
55 | GCCATGCA | -0.255
56 | ATTCTTTA | 0.259
57 | CCACAACG | -0.173
58 | TATCCGGA | -0.0438
59 | ACGCTCCC | -0.33
60 | AAGCCATA | -0.0171
61 | GAACGGTC | -0.239
62 | TCTTTTCA | 0.0731
63 | GAAGCTTA | 0.0379
64 | AACTGACA | 0.12
65 | ATTACCAC | 0.17
66 | AGGAAAAT | 0.122
67 | AATATATC | 0.445
68 | GATTAAGA | 0.157
69 | AATACCAA | 0.227
70 | GGATCAGA | -0.221
71 | AACTAATC | 0.187
72 | CTATGTAC | 0.112
73 | GAGACGGC | -0.291
74 | CGGCACCA | -0.148
75 | CAGTGCCA | -0.178

Row | Sequence | PBM 8-mer E-score
76 | AGGTTTGG | -0.0442
77 | ACAAGTCC | -0.158
78 | ATCTAGAT | 0.104
79 | GAATAACA | 0.2
80 | ATCAGTCA | -0.0954
81 | ATGAACTC | -0.04
82 | CTCTTAGC | -0.0824
83 | GTGTACAA | 0.168
84 | AGGAGAAA | -0.112
85 | CTCTATGA | -0.117
86 | AAATTGCG | 0.208
87 | AATAGACA | 0.0704
88 | GACCACTA | -0.0287
89 | ACCGGAGT | -0.185
90 | GGCTTTAC | -0.0927
91 | TATCGACA | 0.226
92 | ACAAGTCT | -0.0548
93 | CCCGACGG | -0.229
94 | ATAAGTTC | 0.368
95 | TATCGCCA | 0.147
96 | CATCACAA | -0.0723
97 | AAAGCCGG | -0.0727
98 | AGACATAT | 0.241
99 | CACTCGTC | -0.185
100 | GAACTACA | 0.138

Row | Sequence | PBM 8-mer E-score
101 | GTGATCCA | -0.0772
102 | GGGAGCCA | -0.274
103 | AGATAGTA | 0.253
104 | AGCGGCGC | -0.215
105 | CGACATCA | -0.101
106 | GCCCTTAA | -0.000377
107 | GAAGGGTC | -0.257
108 | AAAATTAA | 0.387
109 | CTTTCACA | -0.00139
110 | AACAAGAG | 0.146
111 | CATGCCAC | -0.116
112 | GCGGCCTA | -0.148
113 | CTACTCAG | -0.22
114 | AATGCCTG | -0.0755
115 | AGCGGTCC | -0.317
116 | TACGTGAA | 0.115
117 | CTAAGGGA | -0.123
118 | GAAGAGGA | -0.13
119 | ACTCTTCT | -0.0108
120 | AGGTCCGA | -0.238
121 | CTAGCTCC | -0.0314
122 | AACAATGA | 0.201
123 | CCCTCCCC | -0.41
124 | ATTCTAAG | 0.248
125 | AATGTCTC | 0.028

Row | Sequence | PBM 8-mer E-score
126 | CCACCCCG | -0.32
127 | CCTCAAAC | -0.125
128 | ACCGCTGG | -0.0631
129 | CGCCCAAC | -0.0513
130 | CAATGCGA | -0.195
131 | AGGGACAG | -0.212
132 | TCTCAACA | 0.049
133 | GAACTCGC | -0.161
134 | AGAGTAAT | 0.141
135 | TCATTGCA | -0.0364
136 | AATTAGCG | 0.113
137 | AGAACGTA | 0.0108
138 | ACTTCCAG | 0.0169
139 | AGTAGCCG | -0.117
140 | CCCGCGCC | -0.173
141 | CAGACGTA | -0.0998
142 | GACCAAGA | -0.145
143 | TTCACAAA | 0.151
144 | CAGGGATA | -0.0205
145 | CGCACGTA | -0.1
146 | ACGCCCCC | -0.372
147 | CCCAGCTA | -0.153
148 | GCTCATCC | -0.279
149 | AAACCGCC | -0.173
150 | GAATATTA | 0.4

Row | Sequence | PBM 8-mer E-score
151 | GGGCGTAC | -0.152
152 | TTACCTAA | 0.223
153 | GTTGAAGA | 0.0288
154 | ACCATTTA | 0.173
155 | CTGCGGTA | 0.0276
156 | CCAATGCG | -0.107
157 | ACCATAAG | 0.0319
158 | ATATCTGA | 0.191
159 | AGACGACA | -0.18
160 | CATTCCCA | -0.0789
161 | ATGCCGCA | 0.00868
162 | ACCTGGAA | -0.067
163 | GAGATTGA | -0.0698
164 | CCCCTCGA | -0.217
165 | CAATGGGC | -0.289
166 | CCCAGGTA | -0.0822
167 | AGAGAGTA | 0.0537
168 | TCTGGAAA | 0.0485
169 | GCTTATAC | 0.166
170 | AAGGGATG | -0.0857
171 | CGCTGCTA | -0.044
172 | TCCACCGA | -0.192
